Experimental findings from PubChem BioAssay (NCATS) are described below.

The nature of the experiment: qHTS drug screen for cell cycle checkpoint inhibitors in PARPi-resistant BRCA-mutant ovarian cancer cell lines. (AID 1963452). The conditions noted are these: PEO1/OlaR viability, CellTiter-Glo luminescence, 96 h. A digest of the protocol:
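PEO1, PEO4 and PEO1/OlaR ovarian cancer cells, 600 per well, exposed 96 h at 37C to a dilution series. Viability read by CellTiter-Glo luminescence, normalized to DMSO and empty wells; activity summarized as Z-AUC.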
Background: In qHTS, concentration-response curves come from the screen itself.

Where [1] appears, read: measured here: PEO1 parental viability.

Broadly, the AC50 is the midpoint of the concentration-response curve, whichever way the signal moves.

This is one part of the list. The main result of the screen is listed elsewhere. These columns were measured beside it and carry no call. Potencies come from curve fits of mixed quality, noted in brackets.
Tags tell the direction and shape of the fitted curve.

`CCN(C(=O)c1c(O)c2c(Cl)cccc2n(C)c1=O)c1ccccc1`: the AC50 is 9.77 µM [falling, partial curve, poor fit] under setting [1] and 4.9 µM [falling, partial curve] (measured here: PEO4 viability).
With `Cc1ccc(NC(=O)c2ccc3c(c2)OCCO3)cc1NC(=O)c1ccc2nc(OCCN3CCCC3)ccc2c1`, the concentration at half-maximal activity (AC50) runs as follows: under setting [1], 0.169 µM [falling, full curve]; (measured here: PEO4 viability) 0.12 µM [falling, full curve].
In the case of `Cn1ncc(Cl)c1-c1cc(C(=O)NC(CN)Cc2ccc(F)c(F)c2)oc1Cl` (stereo unspecified), the AC50 reads like this: under setting [1], 19.5 µM [falling, partial curve]; (measured here: PEO4 viability) 19.5 µM [falling, single point].
For the molecule `CS[C@H]1SC[C@@H]2C(=O)N(C)[C@H](C(C)C)C(=O)OC[C@H](NC(=O)c3cnc4ccccc4n3)C(=O)N[C@H](C)C(=O)N(C)[C@H]1C(=O)N(C)[C@H](C(C)C)C(=O)OC[C@H](NC(=O)c1cnc3ccccc3n1)C(=O)N[C@H](C)C(=O)N2C`, the AC50 by setting is: under setting [1], 0.0062 µM [falling, full curve]; (measured here: PEO4 viability) 0.0078 µM [falling, full curve, poor fit].
With `CN1CCN(c2ccc(Nc3ncc4cc(C#N)c(=O)n(C5CCCC5)c4n3)cc2)CC1`, the AC50 reads like this: under setting [1], 7.76 µM [falling, partial curve, poor fit]; (measured here: PEO4 viability) 12.3 µM [falling, partial curve, poor fit].
`C=CC(=O)Nc1cccc(Nc2nc(Nc3ccc(NC4CN(CCF)C4)cc3OC)ncc2C(F)(F)F)c1`: the half-maximal activity concentration (AC50) runs as follows: under setting [1], 9.77 µM [falling, partial curve]; (measured here: PEO4 viability) 11 µM [falling, partial curve].
As to `CC(=O)O[C@@]12CO[C@@H]1C[C@H](O)[C@@]1(C)C(=O)[C@H](O)C3=C(C)[C@@H](OC(=O)[C@H](O)[C@@H](NC(=O)OC(C)(C)C)c4ccccc4)C[C@@](O)([C@@H](OC(=O)c4ccccc4)[C@H]21)C3(C)C`, the AC50 runs as follows: under setting [1], 0.0123 µM [falling, full curve]; (measured here: PEO4 viability) 0.0347 µM [falling, full curve, poor fit].
Take `COc1ccccc1C(=O)Nc1cc2c(cc1N1CCCC1)n(C)c(=O)n2C`: the AC50 reads like this: under setting [1], 2.19 µM [falling, partial curve, poor fit]; (measured here: PEO4 viability) 27.5 µM [falling, single point].
Consider `CC(C)(O)CNc1ncc(-c2ccnc(Nc3ccncc3)n2)c(CC2CC2)n1`, for which the concentration at half-maximal activity (AC50) by setting is: under setting [1], 15.5 µM [falling, partial curve]; (measured here: PEO4 viability) 24.5 µM [falling, single point].
As to `CC(=O)N(O)CCCCCNC(=O)CCC(=O)N(O)CCCCCNC(=O)CCC(=O)N(O)CCCCCN`, the AC50 under setting [1] was 7.76 µM [falling, partial curve, poor fit] and the AC50 (measured here: PEO4 viability) was 5.49 µM [falling, partial curve].
In the case of `O=C(Nc1cccnn1)N1CCC(=Cc2cccc(Oc3ccc(C(F)(F)F)cn3)c2)CC1`, the AC50 runs as follows: under setting [1], 1.95 µM [falling, partial curve, poor fit]; (measured here: PEO4 viability) 27.5 µM [falling, partial curve, poor fit].
Take `CC(C)C(=O)OCC(=O)[C@@]12O[C@H](C3CCCCC3)O[C@@H]1C[C@H]1[C@@H]3CCC4=CC(=O)C=C[C@]4(C)[C@H]3[C@@H](O)C[C@@]12C`: the AC50 is 13.8 µM [falling, partial curve] under setting [1] and 21.9 µM [falling, single point] (measured here: PEO4 viability).
As to `CO[C@@H]1[C@H](N(C)C(=O)c2ccccc2)C[C@H]2O[C@]1(C)n1c3ccccc3c3c4c(c5c6ccccc6n2c5c31)C(=O)NC4`, the AC50 under setting [1] was 7.76 µM [falling, partial curve] and the AC50 (measured here: PEO4 viability) is 4.36 µM [falling, full curve].
`NC(=O)c1cccc2c(NC(CN3CCC3)c3ccc(Cl)c(C(F)(F)F)c3)ncnc12` (stereo unspecified): the AC50 is 11 µM [falling, partial curve] under setting [1] and 11 µM [falling, partial curve] (measured here: PEO4 viability).
Turning to `COc1ccc2[nH]c3c(c2c1)CCN[C@]31CS[C@@H]2c3c(OC(C)=O)c(C)c4c(c3[C@H](COC1=O)N1[C@@H]2[C@H]2c3c(cc(C)c(OC)c3O)C[C@@H]([C@@H]1O)N2C)OCO4`, the half-maximal activity concentration (AC50) is 0.0112 µM [falling, full curve] under setting [1] and 0.02 µM [falling, full curve] (measured here: PEO4 viability).
Consider `CCCCC(=O)OCC(=O)[C@]1(O)Cc2c(O)c3c(c(O)c2[C@@H](O[C@H]2C[C@H](NC(=O)C(F)(F)F)[C@H](O)[C@H](C)O2)C1)C(=O)c1c(OC)cccc1C3=O`, for which the AC50 runs as follows: under setting [1], 0.347 µM [falling, full curve]; (measured here: PEO4 viability) 2.19 µM [falling, full curve].
As for `Nc1ccc(F)cc1NC(=O)c1ccc(CNC(=O)/C=C/c2cccnc2)cc1`, the AC50 was 7.76 µM [falling, partial curve] under setting [1] and 27.5 µM [falling, single point] (measured here: PEO4 viability).
Take `C[C@@H]1COCCN1c1cc(-c2ccnn2C)c2ccnc(-c3ccn[nH]3)c2n1`: the concentration at half-maximal activity (AC50) is, setting by setting: under setting [1], 6.16 µM [falling, partial curve]; (measured here: PEO4 viability) 2.19 µM [falling, full curve].
`CCCOc1ccc(CCc2nc3cc(-c4c(C)noc4C)ccc3n2CCN2CCOCC2)cc1`: the AC50 reads like this: under setting [1], 21.9 µM [falling, single point]; (measured here: PEO4 viability) 19.5 µM [falling, single point].
On to `Cc1cc(O)c(-c2ccc([C@@H](C)CN)cc2)c2c1[nH]c(=O)c1sccc12`, for which the AC50 is 0.0436 µM [falling, full curve] under setting [1] and 0.0436 µM [falling, full curve] (measured here: PEO4 viability).
Regarding `c1cc(-c2cnn3cc(-c4ccc(N5CCNCC5)cc4)cnc23)c2cccnc2c1`, the half-maximal activity concentration (AC50) reads like this: under setting [1], 21.9 µM [falling, partial curve, poor fit]; (measured here: PEO4 viability) 19.5 µM [falling, single point].
Turning to `O=S(=O)(Nc1ccc(-c2cccnc2)c2cccnc12)c1cccc(C(F)(F)F)c1`, the AC50 runs as follows: under setting [1], 3.89 µM [falling, full curve]; (measured here: PEO4 viability) 6.16 µM [falling, partial curve].
In the case of `CCOC(=O)CCNc1cc(N2CCc3ccccc3CC2)nc(-c2ccccn2)n1`, the AC50 was 13.8 µM [falling, partial curve] under setting [1] and 5.49 µM [falling, partial curve] (measured here: PEO4 viability).
For `NS(=O)(=O)c1ccc(S(=O)(=O)Nc2cccc3c(Cl)c[nH]c23)cc1`, the half-maximal activity concentration (AC50) by setting is: under setting [1], 5.49 µM [falling, partial curve]; (measured here: PEO4 viability) 0.616 µM [falling, full curve].
As to `C=CC(=O)N1CCC(Oc2cc3c(Nc4ccc(Cl)c(Cl)c4F)ncnc3cc2OC)CC1`, the AC50 was 7.76 µM [falling, partial curve] under setting [1] and 15.5 µM [falling, partial curve] (measured here: PEO4 viability).
With `Cc1cc(Nc2cc(N3CCN(C)CC3)nc(/C=C/c3ccccc3)n2)n[nH]1`, the AC50 is, setting by setting: under setting [1], 6.16 µM [falling, partial curve]; (measured here: PEO4 viability) 6.92 µM [falling, partial curve, poor fit].
On to `CCCC1(CCC)CCC2(CCN(CCCN(CC)CC)C2)CC1`, for which the AC50 is 3.47 µM [falling, full curve] under setting [1] and 2.19 µM [falling, full curve] (measured here: PEO4 viability).
For `CNC(=O)c1cccc2cc(Oc3ccnc4cc(OCC5(N)CC5)c(OC)cc34)ccc12`, the AC50 was 24.5 µM [falling, single point] under setting [1] and 13.8 µM [falling, partial curve] (measured here: PEO4 viability).
`CNCc1ccc(C)c(NC(=O)c2ccc(Nc3nc(-c4ccccc4)c4ccccc4n3)cc2)c1`: the AC50 is 19.5 µM [falling, single point] under setting [1] and 21.9 µM [falling, single point] (measured here: PEO4 viability).
In the case of `Cc1nc(-c2cn3c(n2)-c2ccc(-c4cnn(C(C)(C)C(N)=O)c4)cc2OCC3)n(C(C)C)n1`, the AC50 is 6.92 µM [falling, partial curve] under setting [1] and 15.5 µM [falling, partial curve] (measured here: PEO4 viability).
`CC(C)(C)NC(=O)c1cncn1C1CCN(c2ccc(-c3nnc(C(F)(F)F)o3)cn2)CC1`: the AC50 runs as follows: under setting [1], 8.71 µM [falling, partial curve, poor fit]; (measured here: PEO4 viability) 2.19 µM [falling, partial curve].
Consider `C#C[C@]1(O)CC[C@H]2[C@@H]3[C@H](C)CC4=C(CCC(=O)C4)[C@H]3CC[C@@]21C`, for which the AC50 under setting [1] is 0.049 µM [falling, full curve] and the AC50 (measured here: PEO4 viability) was 0.0087 µM [rising, full curve, poor fit].
Take `Cn1nccc1Nc1nccc(-c2ccn([C@H](CO)c3ccc(Cl)c(F)c3)c(=O)c2)n1`: the AC50 under setting [1] is 2.75 µM [falling, full curve] and the AC50 (measured here: PEO4 viability) is 19.5 µM [falling, single point].
Turning to `CN1CCN(C(=O)c2ccc(-c3ccc4c(C=O)c(O)ccc4c3)s2)CC1`, the concentration at half-maximal activity (AC50) reads like this: under setting [1], 27.5 µM [falling, single point]; (measured here: PEO4 viability) 17.4 µM [falling, single point].
`Cc1cc(CS(=O)(=O)c2ccccc2)cc(OCc2ccc(CN3CCC[C@@H]3CO)cc2)c1`: the AC50 under setting [1] is 13.8 µM [falling, single point] and the AC50 (measured here: PEO4 viability) is 27.5 µM [falling, single point].
As to `Cc1ncc(NC(=O)c2ccc(CN3CCN(C)CC3)c(C(F)(F)F)c2)cc1Nc1nccc(-c2cccnc2)n1`, the half-maximal activity concentration (AC50) is 24.5 µM [falling, single point] under setting [1] and 24.5 µM [falling, single point] (measured here: PEO4 viability).
For `Cc1ccc(-c2nn(C(C)(C)CNC(=O)c3ccncc3)c3ncnc(N)c23)cc1`, the AC50 was 7.76 µM [falling, partial curve] under setting [1] and 6.16 µM [falling, partial curve] (measured here: PEO4 viability).
`O=c1cc(N2CCOCC2)oc2c(-c3ccc4c(c3)OCCO4)csc12`: the AC50 was 3.89 µM [falling, partial curve] under setting [1] and 3.09 µM [falling, full curve] (measured here: PEO4 viability).
